In PMC9911399, “Two distinct binding modes provide the RNA-binding protein RbFox with extraordinary sequence specificity”:
Positions count from the first letter of the chain named. The list shows a part of the results.

T1: RBFOX1 RRM RbFoxmut (Fox-RRM*) (Homo sapiens, UniProt Q9NWB1 109-208, R118D;E147R;N151S;E152T)
T1 sequence: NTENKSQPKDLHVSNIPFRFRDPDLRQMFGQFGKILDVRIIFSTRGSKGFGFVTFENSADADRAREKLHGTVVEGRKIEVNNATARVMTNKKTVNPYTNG

B1: UCGCCAG (DNA:RNA)
RNA: GGGAGACCGGAAUUCAGAUUGUCCUCGCCAGUUAAAUCCCGUCGUAGCCACCA
DNA 1: CAATCTGAATTCCGGTCTCCC
DNA 2: TGGTGGCTACGACGGGATT
B2: AGAAGGG (DNA:RNA)
RNA: B1 RNA with U25A, C26G, G27A, C28A, C29G, A30G
DNA 1: CAATCTGAATTCCGGTCTCCC
DNA 2: TGGTGGCTACGACGGGATT
B3: CUUGACU (DNA:RNA)
RNA: GGGAGACCGGAAUUCAGAUUGUCCCUUGACUUUAAAUCCCGUCGUAGCCACCA
DNA 1: CAATCTGAATTCCGGTCTCCC
DNA 2: TGGTGGCTACGACGGGATT
B4: UUCAUGA (DNA:RNA)
RNA: B3 RNA with C25U, U27C, G28A, A29U, C30G, U31A
DNA 1: CAATCTGAATTCCGGTCTCCC
DNA 2: TGGTGGCTACGACGGGATT
B5: CCUUUUC (DNA:RNA)
RNA: B3 RNA with U26C, G28U, A29U, C30U, U31C
DNA 1: CAATCTGAATTCCGGTCTCCC
DNA 2: TGGTGGCTACGACGGGATT
B6: AAUCGGG (DNA:RNA)
RNA: B1 RNA with U25A, C26A, G27U, C29G, A30G
DNA 1: CAATCTGAATTCCGGTCTCCC
DNA 2: TGGTGGCTACGACGGGATT
B7: GUCUAUU (DNA:RNA)
RNA: B3 RNA with C25G, U27C, G28U, C30U
DNA 1: CAATCTGAATTCCGGTCTCCC
DNA 2: TGGTGGCTACGACGGGATT
B8: CUAUAAA (DNA:RNA)
RNA: B3 RNA with U27A, G28U, C30A, U31A
DNA 1: CAATCTGAATTCCGGTCTCCC
DNA 2: TGGTGGCTACGACGGGATT
B9: AGCCGCG (DNA:RNA)
RNA: B1 RNA with U25A, C26G, G27C, C29G, A30C
DNA 1: CAATCTGAATTCCGGTCTCCC
DNA 2: TGGTGGCTACGACGGGATT
B10: CGGUCUG (DNA:RNA)
RNA: B1 RNA with U25C, C26G, C28U, A30U
DNA 1: CAATCTGAATTCCGGTCTCCC
DNA 2: TGGTGGCTACGACGGGATT
B11: AGUGUUU (DNA:RNA)
RNA: B3 RNA with C25A, U26G, A29U, C30U
DNA 1: CAATCTGAATTCCGGTCTCCC
DNA 2: TGGTGGCTACGACGGGATT
B12: GUAUAGG (DNA:RNA)
RNA: B3 RNA with C25G, U27A, G28U, C30G, U31G
DNA 1: CAATCTGAATTCCGGTCTCCC
DNA 2: TGGTGGCTACGACGGGATT
B13: GGAGUUG (DNA:RNA)
RNA: B3 RNA with C25G, U26G, U27A, A29U, C30U, U31G
DNA 1: CAATCTGAATTCCGGTCTCCC
DNA 2: TGGTGGCTACGACGGGATT
B14: GGAAUGC (DNA:RNA)
RNA: GGGAGACCGGAAUUCAGAUUGUCCGGAAUGCUUAAAUCCCGUCGUAGCCACCA
DNA 1: CAATCTGAATTCCGGTCTCCC
DNA 2: TGGTGGCTACGACGGGATT
B15: UUGACCC (DNA:RNA)
RNA: B1 RNA with C26U, C28A, A30C, G31C
DNA 1: CAATCTGAATTCCGGTCTCCC
DNA 2: TGGTGGCTACGACGGGATT
B16: CGGGCAC (DNA:RNA)
RNA: B1 RNA with U25C, C26G, C28G, G31C
DNA 1: CAATCTGAATTCCGGTCTCCC
DNA 2: TGGTGGCTACGACGGGATT
B17: GCUCUGC (DNA:RNA)
RNA: B14 RNA with G26C, A27U, A28C
DNA 1: CAATCTGAATTCCGGTCTCCC
DNA 2: TGGTGGCTACGACGGGATT
B18: CUGAGUA (DNA:RNA)
RNA: B3 RNA with U27G, G28A, A29G, C30U, U31A
DNA 1: CAATCTGAATTCCGGTCTCCC
DNA 2: TGGTGGCTACGACGGGATT
B19: UGGUACG (DNA:RNA)
RNA: B1 RNA with C26G, C28U, C29A, A30C
DNA 1: CAATCTGAATTCCGGTCTCCC
DNA 2: TGGTGGCTACGACGGGATT
B20: GCGUAGU (DNA:RNA)
RNA: B3 RNA with C25G, U26C, U27G, G28U, C30G
DNA 1: CAATCTGAATTCCGGTCTCCC
DNA 2: TGGTGGCTACGACGGGATT
B21: CUACGCC (DNA:RNA)
RNA: B3 RNA with U27A, G28C, A29G, U31C
DNA 1: CAATCTGAATTCCGGTCTCCC
DNA 2: TGGTGGCTACGACGGGATT
B22: UUGCCAA (DNA:RNA)
RNA: B1 RNA with C26U, G31A
DNA 1: CAATCTGAATTCCGGTCTCCC
DNA 2: TGGTGGCTACGACGGGATT
B23: CUCCACC (DNA:RNA)
RNA: B3 RNA with U27C, G28C, U31C
DNA 1: CAATCTGAATTCCGGTCTCCC
DNA 2: TGGTGGCTACGACGGGATT
B24: AGUGACC (DNA:RNA)
RNA: B3 RNA with C25A, U26G, U31C
DNA 1: CAATCTGAATTCCGGTCTCCC
DNA 2: TGGTGGCTACGACGGGATT
B25: AGCGUCC (DNA:RNA)
RNA: B14 RNA with G25A, A27C, A28G, G30C
DNA 1: CAATCTGAATTCCGGTCTCCC
DNA 2: TGGTGGCTACGACGGGATT
B26: GGCAUGG (DNA:RNA)
RNA: B14 RNA with A27C, C31G
DNA 1: CAATCTGAATTCCGGTCTCCC
DNA 2: TGGTGGCTACGACGGGATT
B27: UGGGGCU (DNA:RNA)
RNA: B3 RNA with C25U, U26G, U27G, A29G
DNA 1: CAATCTGAATTCCGGTCTCCC
DNA 2: TGGTGGCTACGACGGGATT
B28: UACCGGA (DNA:RNA)
RNA: B1 RNA with C26A, G27C, C29G, A30G, G31A
DNA 1: CAATCTGAATTCCGGTCTCCC
DNA 2: TGGTGGCTACGACGGGATT
B29: AUAAAAA (DNA:RNA)
RNA: B3 RNA with C25A, U27A, G28A, C30A, U31A
DNA 1: CAATCTGAATTCCGGTCTCCC
DNA 2: TGGTGGCTACGACGGGATT
B30: UGCUGCC (DNA:RNA)
RNA: B14 RNA with G25U, A27C, A28U, U29G, G30C
DNA 1: CAATCTGAATTCCGGTCTCCC
DNA 2: TGGTGGCTACGACGGGATT
B31: GUCAGAG (DNA:RNA)
RNA: B14 RNA with G26U, A27C, U29G, G30A, C31G
DNA 1: CAATCTGAATTCCGGTCTCCC
DNA 2: TGGTGGCTACGACGGGATT

biological target: T1, RBFOX1 RRM RbFoxmut (Fox-RRM*); experiment: EMSA; HiTS-Eq, 1 nM pool, 10 min; buffer printed only for the single-RNA assays: 10 mM Tris pH 7.5, 150 mM NaCl, 3.4 mM EDTA, 0.001% NP-40, 30 C; conditions: tags: His6 N-terminal (pET28a); label: 5' 32P
How it was run: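 These values rest on relative association constants, computed from read-count changes of each RNA species versus the control reaction and normalised to the cognate motif. Reads came from free RNA recovered by 8% native PAGE after purified RbFox RRM (wild type or mutant) at increasing concentrations was equilibrated for 10 min in 50 µL with 1 nM of a 5′-radiolabelled pool with 7 randomized nucleotides and DNA-annealed flanks.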

**Q.** How did the binding signal turn out when B1 was run?
**A.** 0.0961 KA relative to UGCAUGU

**Q.** How did the binding signal turn out when B2 was run?
**A.** 0.0614 KA relative to UGCAUGU

**Q.** With B3 as the binder, how does the binding signal read?
**A.** 0.0514 KA relative to UGCAUGU

**Q.** Which binding signal does the source give for B4 here?
**A.** 0.0926 KA relative to UGCAUGU

**Q.** B5 was tested. Which binding signal did it give?
**A.** 0.0392 KA relative to UGCAUGU

**Q.** B6 was tested. Which binding signal did it give?
**A.** 0.0711 KA relative to UGCAUGU

**Q.** For B7, which binding signal is on record?
**A.** 0.0959 KA relative to UGCAUGU

**Q.** B8 was tested. Which binding signal did it give?
**A.** 0.059 KA relative to UGCAUGU

**Q.** B9 was tested. Which binding signal did it give?
**A.** 0.118 KA relative to UGCAUGU

**Q.** Which binding signal does the source give for B10 here?
**A.** 0.236 KA relative to UGCAUGU

**Q.** Which binding signal does the source give for B11 here?
**A.** 0.116 KA relative to UGCAUGU

**Q.** For B12, which binding signal is on record?
**A.** 0.116 KA relative to UGCAUGU

**Q.** Which binding signal does the source give for B13 here?
**A.** 0.209 KA relative to UGCAUGU

**Q.** How did the binding signal turn out when B14 was run?
**A.** 0.686 KA relative to UGCAUGU

**Q.** For B15, which binding signal is on record?
**A.** 0.0684 KA relative to UGCAUGU

**Q.** Which binding signal does the source give for B16 here?
**A.** 0.0766 KA relative to UGCAUGU

**Q.** With B17 as the binder, how does the binding signal read?
**A.** 0.0694 KA relative to UGCAUGU

**Q.** For B18, which binding signal is on record?
**A.** 0.118 KA relative to UGCAUGU

**Q.** How did the binding signal turn out when B19 was run?
**A.** 0.367 KA relative to UGCAUGU

**Q.** With B20 as the binder, how does the binding signal read?
**A.** 0.138 KA relative to UGCAUGU

**Q.** Which binding signal does the source give for B21 here?
**A.** 0.107 KA relative to UGCAUGU

**Q.** How did the binding signal turn out when B22 was run?
**A.** 0.0855 KA relative to UGCAUGU

**Q.** Which binding signal does the source give for B23 here?
**A.** 0.111 KA relative to UGCAUGU

**Q.** How did the binding signal turn out when B24 was run?
**A.** 0.0698 KA relative to UGCAUGU

**Q.** Which binding signal does the source give for B25 here?
**A.** 0.0794 KA relative to UGCAUGU

**Q.** For B26, which binding signal is on record?
**A.** 0.524 KA relative to UGCAUGU

**Q.** With B27 as the binder, how does the binding signal read?
**A.** 0.0717 KA relative to UGCAUGU

**Q.** With B28 as the binder, how does the binding signal read?
**A.** 0.0526 KA relative to UGCAUGU

**Q.** How did the binding signal turn out when B29 was run?
**A.** 0.13 KA relative to UGCAUGU

**Q.** With B30 as the binder, how does the binding signal read?
**A.** 0.298 KA relative to UGCAUGU

**Q.** B31 was tested. Which binding signal did it give?
**A.** 0.128 KA relative to UGCAUGU
